Reference: the GPR68 mutational scans of Howard et al. (2025)
Scores with a large standard error are left out. Two further conditions of the source, in which the scores hardly spread, are not listed. Read del as a deletion of the residues named and ins as an insertion between two positions. For some of these results: How much ogerin was present is not stated here.

B1: GPR68, Q15743 (parent)
chain: MGNITADNSSMSCTIDHTIHQTLAPVVYVTVLVVGFPANCLSLYFGYLQIKARNELGVYLCNLTVADLFYICSLPFWLQYVLQHDNWSHGDLSCQVCGILLYENIYISVGFLCCISVDRYLAVAHPFRFHQFRTLKAAVGVSVVIWAKELLTSIYFLMHEEVIEDENQHRVCFEHYPIQAWQRAINYYRFLVGFLFPICLLLASYQGILRAVRRSHGTQKSRKDQIQRLVLSTVVIFLACFLPYHVLLLVRSVWEASCDFAKGVFNAYHFSLLLTSFNCVADPVLYCFVSETTHRDLARLRGACLAFLTCSRTGRAREAYPLGAPEASGKSGAQGEEPELLTKLHPAFQTPNSPGSGGFPTGRLA

Experiments:
[1] = variants of: B1; experiment: cAMP reporter score (Enrich2 score, wild type = 0); higher = more signal; HEK293T, FACS bins
[2] = variants of: B1; experiment: surface expression score (Enrich2 score, wild type = 0); higher = more signal; HEK293T, FACS bins

Variant | cAMP reporter score ([1]; pH 5.5) | cAMP reporter score ([1]; pH 6) | cAMP reporter score ([1]; pH 6, modulator: ogerin) | cAMP reporter score ([1]; pH 6.5, modulator: ogerin) | surface expression score [2]
MGNITADNSSMSCTIDHTIHQTLAPVVYVTVLVVGFPANCLSFYFGYLQIKARNELGVYLCNLTVADLFYICSLPFWLQYVLQHDNWSHGDLSCQVCGILLYENIYISVGFLCCISVDRYLAVAHPFRFHQFRTLKAAVGVSVVIWAKELLTSIYFLMHEEVIEDENQHRVCFEHYPIQAWQRAINYYRFLVGFLFPICLLLASYQGILRAVRRSHGTQKSRKDQIQRLVLSTVVIFLACFLPYHVLLLVRSVWEASCDFAKGVFNAYHFSLLLTSFNCVADPVLYCFVSETTHRDLARLRGACLAFLTCSRTGRAREAYPLGAPEASGKSGAQGEEPELLTKLHPAFQTPNSPGSGGFPTGRLA [L43F] | -0.512 | 1.09 | -0.498 | 0.62 | -0.944
MGNITADNSSMSCTIDHTIHQTLAPVVYVTVLVVGFPANCLSHYFGYLQIKARNELGVYLCNLTVADLFYICSLPFWLQYVLQHDNWSHGDLSCQVCGILLYENIYISVGFLCCISVDRYLAVAHPFRFHQFRTLKAAVGVSVVIWAKELLTSIYFLMHEEVIEDENQHRVCFEHYPIQAWQRAINYYRFLVGFLFPICLLLASYQGILRAVRRSHGTQKSRKDQIQRLVLSTVVIFLACFLPYHVLLLVRSVWEASCDFAKGVFNAYHFSLLLTSFNCVADPVLYCFVSETTHRDLARLRGACLAFLTCSRTGRAREAYPLGAPEASGKSGAQGEEPELLTKLHPAFQTPNSPGSGGFPTGRLA [L43H] | -1.86 | -0.739 | -1.58 | -0.573 | -2.1
